Data taken from the RNAGym collection of RNA variant scans (doi:10.7554/elife.90254).
The source gives no read counts; variants with many changes may rest on few reads.

B1: LINE1-mini (parent)
chain: GGCAGAGCUCAACACAGCGUGGCAAAGUGGCUGUGGCUAGACUGCC

Variants of: B1
Test: self-cleavage, relative activity (ratio to wild type); higher = more cleavage; in vitro, sequencing; the parent is a self-cleaving ribozyme

Variant | self-cleavage
G2U A6U A14C G17U G35C | 0.02
G7A A26G U43C C45G | 0.1
G21U U28C G30C | 0.25
G7A C42U G44C | 0.01
C15U G17U U34C G36C | 0.06
A4C G17U U32A G33A | 0.1
G21U G22C A39U G40C A41C | 0.15
A6G C10U A26G U28C | 0.01
C13A G19U C45G | 0.08
G5C G21A C23A G30C C45U | 0.03
G5A C10A C45G | 0.01
G7A A11G G19A C37A | 0.03
C18A G19U A25U A41U | 0.36
A11U G29U G40A | 0.03
A6G C8U G27C U32C | 0.02
G2U U20G U28C C45A | 0.55
G19A G30A C31U U43C | 0.04
G1U G21U C23A U28G G30A | 0.3
G7U G40U C42G U43A | 0.3
G7U G22C C37A | 0.03
G1A A4U A6C U9G A12C A41G | 0.18
C10A U34G G35C | 0.04
G2U C23G G27C C46U | 0.04
G5U G19C G35U | 0.04

Variant | self-cleavage
A4G C8U A11U G44A C45U | 0.02
A4C C10A G33C C46G | 0.01
A11U G22C C23G | 0.05
C18A C42A U43C C46G | 0.08
U9A G17A G44A | 0.15
A11U G22A G27A G30A | 0.04
G1C C3A C13U G40U | 0.14
A25U U34A C42G | 0.07
C18G C23U A24G G27C A41U G44A | 0.1
G1A C3U G21C | 0.21
G2U A14C G19U A26C | 0.01
U9G G30A C31G | 0.08
G5U C10A C13G | 0.03
C10A A24C G33U A41G | 0
G19C U20C G27U | 0.18
C8A A11G C31G | 0.01
G22A A25C C42U | 0.35
C8G A12G A16U C18U C46U | 0.01
A16U G21C A24U | 0.01
A4C U9G C13U G36U C46U | 0.04
G1C A24U A26C | 0.42
C15A C31A U34G G40C G44U | 0
G19C U28A G29C C31A C42G C46A | 0.07
C8U C13U A24C G44U C46A | 0.04

Variant | self-cleavage
A12U U20G C23A A24C U34C G40U | 0
C15U C18U G30A G40A | 0.01
A4G G5U U20C G40U U43A C46A | 0.05
A4U G17U G33A C45A | 0.04
C3U C10A C18A A26C | 0.01
C8A C13U A41C | 0.06
C10U C18G G22C C45U C46A | 0.14
A4C C31U G44U C45A | 0.02
C18G G29A G30A C31G | 0.27
A6G G22U C45A C46U | 0.17
A11C G33U C46U | 0.05
A16C C18U U34C | 0.05
G1U C18U C45G | 0.18
U9A A16U C23G U43G C46A | 0.01
A4U C8A A12G G35A | 0.08
G5U C15A U38A | 0.08
C13G G21A G35U G40A U43G | 0
U9G U20A G35A A41G | 0.05
A6C U20A U28C G29C | 0.42
A12U A14C C15A G21A | 0.03
G1A C8A U32G | 0.52
C13A C18G G22U G35A A41U C45G | 0.03
A11U G17U U34A | 0.02
G7C A26G U28A G33U | 0.05

Variant | self-cleavage
G30A G35C C46U | 0.02
G2A A14G G22A G35A C37U | 0.13
C8A C45G C46U | 0.68
G27A C37G G44A | 0.07
C10U G17C C23U U38C | 0.12
G7U C13A G17C G29A | 0.05
C10G G35C C45U C46U | 0.01
A4G G17A G22C A41U C42U | 0.01
G1C U34A G35U A41G | 0.02
A24U G36A C45G | 0.03
G5U G27A U43G G44C | 0.02
G5U C37A U43C | 0.1
G2U U20G A24G C31A | 0.03
C31U C37U U43A C45A | 0.07
C8G G17A C37U | 0.04
G2A G19C G29A | 0.07
G2U A16C G22U U34A G36U C37G | 0.02
A14U A16G U20A | 0.05
G2C C10G U20A | 0.01
C18A U32A C37U | 0.01
C3A C10U C18A | 0.39
C10U C13A C31U | 0.05
G2A C13U A24U | 0.15
G1C A16G G40U | 0

Variant | self-cleavage
C8U C23G U34A C46A | 0.11
G5A G21C C37A | 0.13
G1U C15A G21A | 0.01
A16U A26G U28G | 0.03
C8A C18U G33A C37U | 0.03
U9A A24C A39U | 0.33
A4G G5U C18U | 0.1
C3U A24G A39C | 0.14
U9G A25G C45A | 0.1
G5U A16U C18U C42U C46G | 0.03
A6C C10U C13U G17U C18U G22A U43A | 0.02
G5U U9G C10U G36C | 0.01
A14U G17A G27A | 0.07
U34A G36C U38A C46U | 0
C3U G30U G40A C45U | 0.02
G1C C13G G19A U34A G36U U38A A41U | 0
C3A A11U G19A | 0.01
C15A U28A G33A G35C | 0.03
A24C C45G C46G | 0
G5U G17C A26C G27C | 0.11
G5C A12U U20A U38G | 0.01
G22U C31G G36C | 0
U9G C15U A39C | 0.04
G5A G22C A25C C31G U34G | 0.02

Variant | self-cleavage
C10A A25G C46U | 0.03
A11U G22U A24U | 0.01
A25U U32A U34C | 0.03
C8A A26G U38A C42A | 0.12
G2U C3U A11G U32G | 0.02
G1U C13U A25C G27A | 0.02
G2A G5C G27A G30A U34A | 0.13
G22C G30A C31G G40U | 0.02
G1C G7A C8A G19A U34C C45U | 0.12
U9G C10U G21U A25G | 0.01
G1U G2A U38A | 0.15
A6U U9A C31G | 0.03
A4C C37U A41C C42A | 0.05
U9C C13U U20C C31A | 0.04
G2U A25C A41U | 0.04
C13U G19C A41G C42G | 0.57
G2C C3U A26C U32C | 0.1
A4G C8G G22A | 0.02
A11U G22A A24U G44A | 0.08
G7A G21C A25C U34A | 0.01
C13A C18A G21U A26G | 0.37
A4G A16G U38C | 0.02
G2C G5A C15G G17A | 0.03
G19C A26G G35U | 0.02

Variant | self-cleavage
U9C C15U A39G A41U | 0.03
G2C A11U G17U | 0.03
A26G C42G C46G | 0.07
A6C G7U C42U | 0.05
C3A A11C C46U | 0.02
C8U A12U A14G | 0.18
C15U G21A C31G G35C G40C | 0.06
U9G A24U C37G | 0.26
G7C C8A G21A | 0.3
G1A C31G A39U G40C | 0.03
C8A A14U A16G | 0.45
A11G G22A A24U G30C U32A U34C | 0.03
G2U A24C G30C G33C | 0
G1C A4C U34A | 0.02
G21U A26C G35A | 0.07
A12G A26G U43C | 0.04
U34G G35U C46U | 0.02
A41C G44A C45U | 0.07
C10G C15A G36A | 0.01
C8A C13A U34A | 0.07
G19U G29C G44U C45U | 0.08
A26U C31U G40C | 0.02
A12G G27C G35A A39U | 0
